Molecules are shown by their SMILES. The campaign covered roughly 340,000 compounds. About 6,900 (2%) were called active. Cut-off read from the data, not from the text of the source: active = inhibition above about 30%; inactive = below that, where a call was filed. The entries are a selection whose mix differs from that of the whole data set. The source gives no active or inactive call for entries shown without one.

Sequence of UniProt P14416 (P14416 whole entry, looked up): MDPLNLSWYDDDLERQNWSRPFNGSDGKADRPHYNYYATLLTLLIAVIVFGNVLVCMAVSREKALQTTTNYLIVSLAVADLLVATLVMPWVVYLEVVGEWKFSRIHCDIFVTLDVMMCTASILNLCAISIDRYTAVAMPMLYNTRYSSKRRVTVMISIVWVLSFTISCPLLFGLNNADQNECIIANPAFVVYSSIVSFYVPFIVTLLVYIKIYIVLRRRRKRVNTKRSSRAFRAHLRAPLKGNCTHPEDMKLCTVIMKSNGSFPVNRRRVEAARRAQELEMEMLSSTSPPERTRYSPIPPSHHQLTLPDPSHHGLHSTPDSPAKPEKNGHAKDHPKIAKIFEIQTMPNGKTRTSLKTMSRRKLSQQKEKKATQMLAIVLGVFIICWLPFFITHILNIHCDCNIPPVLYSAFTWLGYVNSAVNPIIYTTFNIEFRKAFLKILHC

For the assay, the target named is D(2) dopamine receptor (Homo sapiens) (UniProt P14416). As to the kind of experiment: HTS Assay for Allosteric Antagonists of the Human D2 Dopamine Receptor: Primary Screen for Antagonists. Note: 0% is about no effect. The settings on record: HEK293 TREx D2 cells, calcium flux, dopamine EC80; at 10 µM; stronger effect = higher value. The gist of the method:
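Tetracycline-induced HEK293 T-REx cells expressing D2 force-coupled to calcium signalling were dye-loaded, exposed to compound for 180 s, then challenged with an EC80 of dopamine; calcium flux was followed kinetically for a further 180 s.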
(Calcium flux is commonly read through the fluorescence of an indicator in the cells.)
What is called inhibition is the drop in the measured response relative to a control, in per cent. On to `CCN(c1ccc(C)cc1C)S(=O)(=O)c1nnc(NC(=O)c2ccc(F)cc2)s1`, for which the inhibition is 16.8%.
In the case of `CCN(Cc1ccccc1)C(=O)CN1C(=O)COc2ccc(S(=O)(=O)N3CCOCC3)cc21`, the inhibition is -7.42%.
To `O=C(NCCCN1CCN(c2ccccc2)CC1)C1CCCN(c2ncnc3c2nc2n3CCCCC2)C1` (stereo not drawn) belongs active: 59.5%.
To `Cc1ccc2oc(=O)c(-c3nc(-c4cccs4)no3)cc2c1` belongs 6.79%.
On to `CC(C)n1ncc2c(C(=O)N3CCN(Cc4ccc(Br)s4)CC3)cc(C3CC3)nc21`, for which the inhibition was active: 70.3%.
To `COc1cccc(-c2cc(C(=O)Nc3ccc(OC)cc3OC)no2)c1` belongs 22.7%; to `CCOc1ccccc1NC(=O)Cn1c(=O)n(-c2ccc(C)c(C)c2)c(=O)c2c(C)c(C(=O)N(C)C)sc21`, 6.59%; to `COc1cccc(-c2nnc(SCC(=O)N3CCc4ccccc43)o2)c1`, -7.46%.
To `Cc1cc2c(cc1C)NC(CC(=O)Nc1cccc(C)c1C)C(=O)N2` (stereo not drawn) belongs 11.1%.
To `CCS(=O)(=O)c1c(S(=O)(=O)CC)c2cc(C(C)(C)C)ccn2c1C(=O)c1ccc(F)cc1` belongs 11.6%; to `O=C(NCc1ccc(Cl)cc1)C(=O)NCC(c1cccnc1)N1CCN(c2ccccc2)CC1` (stereo not drawn), 12.9%; to `COc1cc(Cl)c(C)cc1NC(=O)Cn1cnc2sc(C)c(S(=O)(=O)N3CCCCC3)c2c1=O`, 7.25%.
As for `Clc1ccc(Nc2ncnc3ccc(Br)cc23)cc1`, the inhibition is active: 34.2%.
To `Cc1noc(NS(=O)(=O)c2ccc(NC(=O)COc3ccccc3Br)cc2)c1C` belongs -1.8%.
Next, `CCOc1ccccc1NC(=O)Nc1ccccc1OCc1cc(=O)n2ccccc2n1`: 2.03%; `Cc1ccc(CCNC(=O)c2ccc(CS(=O)(=O)Cc3ccc(Cl)cc3)o2)cc1`: -8.28%; `CCOC(=O)c1scc(-c2ccc(C)cc2)c1S(=O)(=O)Nc1cc(C)ccc1C`: 18.3%.
Next, `CCOC(=O)c1ccccc1NC(=O)CN(c1cc(C(F)(F)F)ccc1Cl)S(C)(=O)=O`: -3.39%; `COc1cccc(NC(=O)Cn2c(=O)c3cccn3c3ccc(F)cc32)c1`: -0.152%.
As for `O=S(=O)(c1ccccc1)n1nc(-c2ccc(Cl)cc2)nc1NCc1ccc(F)cc1`, the inhibition came out at 3.55%.
To `Cc1ccc(-c2noc(CN(C(=O)c3ccc(C(C)(C)C)cc3)C(C)C)n2)cc1` belongs -8.2%.
To `COc1cccc(-c2nc(SCC(=O)NCc3ccccc3)c3c(=O)n(C)c(=O)n(C)c3n2)c1` belongs -14.6%; to `CCCCSCCCNC(=O)c1cn(CC)c2ccc(S(=O)(=O)N(C)C3CCCCC3)cc2c1=O`, -15.7%.
To `COc1cccc(N2CCN(S(=O)(=O)c3ccc(-c4cc(C(F)(F)F)on4)s3)CC2)c1` belongs -3.09%; to `Cc1ccc(CCNC(=O)CCS(=O)(=O)c2ccc3c(c2)oc(=O)n3C)cc1`, -0.913%; to `O=C(Cn1ccc2cc(S(=O)(=O)N3CCCCCC3)ccc21)NCCc1ccccc1Cl`, -13.9%.
With `COc1ccc(-c2nc(CN3CCN(c4ccccc4OC)CC3)c(C)o2)cc1`, the inhibition is active: 98.5%.
To `COc1ccc(C2CC(=O)N(Cc3cccc(C)c3)c3c2c(C)nn3-c2nc(C)cc(C)n2)c(OC)c1` (stereo not drawn) belongs 10.8%; to `COC(=O)c1sc2cccc(F)c2c1S(=O)(=O)NCc1ccc(F)cc1`, 11.4%.
Next, `CCOC(=O)c1cnc2c(Cl)c(Cl)ccc2c1Nc1ccc(N(C)C)cc1`: -20.6%; `Cc1ccccc1-n1c(=O)c2ccccc2n(Cc2ccc(F)cc2)c1=O`: 4.56%.
In the case of `COc1ccc(-n2c(=O)c3c4c(sc3n(Cc3c(F)cccc3Cl)c2=O)CN(C(C)=O)CC4)cc1OC`, the inhibition was determined as 7.84%.
Next, `O=C(Nc1ccc(F)cc1)c1ncn(-c2ccccc2)n1`: -2.09%.
With `CSc1ccc(CCNC(=O)CN2C(=O)COc3ccc(S(=O)(=O)N4CCCC4)cc32)cc1`, the inhibition turned out to be 4.18%.
Next, `Clc1ccc(-c2nnn3c2nc(N2CCCCC2)c2ccccc23)cc1`: -3.32%; `CCOc1ccc(NC(=O)c2cnn3c2NC(c2ccccc2)=CC3c2cccc(OC)c2OC)cc1` (stereo not drawn): -5.43%.
To `O=C(CN1CCN(c2ccccn2)CC1)Nc1ccc(OCc2ccccc2)cc1` belongs active: 57.3%.
As to `Cc1oc2ncn(CC(C)C)c(=O)c2c1C(=O)N1CCN(c2ccccc2F)CC1`, the inhibition is -6.46%.
To `CCc1ccc(NC(=O)C2(c3cccs3)CCOCC2)cc1` belongs 18.4%.
Turning to `Cc1cc(C)c(NC(=O)CN(c2ccccc2)S(=O)(=O)N(C)C)c(C)c1`, the inhibition is -8.85%.
With `CCOc1ccc(C2=C(C(C)=O)Sc3nnc(C)n3N2C(C)=O)cc1`, the inhibition is -10.3%.
To `Cc1c(NC(=O)Nc2ccccc2C(F)(F)F)c(=O)n(-c2ccccc2)n1C` belongs -1.84%; to `Cn1c(=O)n(C)c2cc(CNCc3ccc(F)cc3)ccc21`, 6.78%; to `CCOc1ccc(NC(=O)c2cccc3c(=O)c4c([nH]c23)CCCC4)cc1`, 23.1%.
Next, `Cc1ccc(Cn2cnc3nc4c(cc3c2=O)CCCC4)cc1`: 19.3%; `Cc1cc(C)cc(-n2c(SCC(=O)Nc3ccccc3F)nc3c(oc4ccccc43)c2=O)c1`: -0.337%; `O=C(CS(=O)(=O)c1ccc(Cl)cc1)Nc1nc2ccc(Br)cc2s1`: 17%.
Next, `COc1ccc(CCNC(=O)CCN2N=C(c3ccccc3)CCC2=O)cc1OC`: 7.64%.
Regarding `CCCc1cc(C(=O)Cc2ccccn2)c(O)cc1O`, the inhibition was active: 36.6%.
With `O=c1n(Cc2ccc([N+](=O)[O-])cc2)c2ccccc2c2nc(-c3ccccc3)nn12`, the inhibition was 0.208%.
`COc1cc(C(=O)OCc2cc(=O)n3ccsc3n2)cc(OC)c1OC`: the inhibition was 4.73%.
Regarding `COc1ccc(NC(=O)Cn2nc(C)c3c(C)n(-c4ccccc4)nc3c2=O)cc1OC`, the inhibition worked out at 5.12%.
As for `CCN(C(=O)c1nn(C)c2c1CSc1ccccc1-2)c1cccc(C)c1`, the inhibition was -1.05%.
To `CCOc1cc(-c2cc(C(=O)O)c3c(-c4ccccc4)[nH]nc3n2)ccc1O` belongs 9.24%.
To `COc1ccc(S(=O)(=O)NCC(c2ccco2)S(=O)(=O)c2cccs2)cc1OC` (stereo not drawn) belongs -8%; to `CCOc1cc(C(=O)N2CC(=O)Nc3ccc(F)cc3C2c2ccccc2)cc(OCC)c1OCC` (stereo not drawn), -11.6%.
Turning to `COc1ccc(N2CCN(CCCNC(=O)c3sc4ncccc4c3-n3cccc3)CC2)cc1`, the inhibition was -9.24%.
On to `CC(C)OCCCNC(=O)Cn1c(-c2cccs2)cc2cc(F)ccc21`, for which the inhibition is 11.2%.
To `COc1cc2nc(NCCc3ccc(Cl)cc3)n3nc(-c4ccccc4)nc3c2cc1OC` belongs 2.77%.
Next, `Cc1cc(C)c(NC(=O)c2cc(S(=O)(=O)N3CCCC3)cn2C)c(C)c1`: -6.33%; `Cc1ccc(OCCSc2nc3ccccc3n2CC(=O)N2CCOCC2)cc1C`: -13.6%.
To `COc1ccc(CNc2nc(-c3ccccc3)nn2C(=O)c2ccccc2OC)cc1` belongs 7.03%; to `COc1cc(Cl)c(S(=O)(=O)N2CCN(c3c(C)cccc3C)CC2)cc1Cl`, -7.08%; to `CCOC(=O)c1cc2c(=O)n3ccccc3nc2n(CC2CCCO2)c1=NC(=O)c1ccc(OCC)cc1` (stereo not drawn), -4.25%.
`CN(Cc1ccccc1)C(=O)c1c[nH]c2ccc(S(=O)(=O)Nc3ccccc3F)cc2c1=O`: the inhibition is -28.2%.
Next, `OC1CCCCC1Sc1nc2ccccc2s1` (stereo not drawn): active: 40.1%; `CCCn1cc(S(=O)(=O)c2ccc(OCC)cc2)c(=O)c2cc(C)ccc21`: 20%.
To `CCOc1ccc(-c2c(C)nn3c(C)c(C(=O)NC(C)c4ccccc4)cnc23)cc1OCC` (stereo not drawn) belongs -17.6%.
To `CCCCC(=O)Nc1cc(-c2cn3cccnc3n2)ccc1C` belongs 28.4%; to `O=C(CCSCc1ccccc1Cl)NCCc1ccccc1`, -1.73%; to `Cc1c(-c2cccc(NC(=O)Cc3ccccc3)c2)nc2ncccn12`, 7.47%.
As for `O=C(NCc1ccccc1)c1n[nH]nc1-c1ccccc1O`, the inhibition is active: 30.8%.
To `O=C(Cn1ccn(-c2ccc(F)c(F)c2)c(=O)c1=O)NCc1ccccc1` belongs 0.862%; to `COc1ccc(Cl)cc1NC(=O)N1CCC2(CC1)Oc1ccccc1C(=O)N2Cc1ccc(F)cc1`, 26%; to `CSc1nc2sc3c(c2c(=O)n1-c1ccc(C)cc1)CCCC3`, 14.3%.
To `CCOC(=O)c1cnn(-c2cccc(Cl)c2)c1C1CCN(C(=O)OC(C)(C)C)CC1` belongs 7.85%.
`Cc1ccc(OCCSc2nc3ccc(NC(=O)COc4ccc(C)cc4)cc3s2)cc1`: the inhibition is -13.1%.
To `COc1ccc(NC(=O)N2CCC(n3c(C)nc4cccnc43)CC2)cc1OC` belongs 21.3%.
To `CCOC(=O)C1=C(CN(CC)Cc2ccccc2)NC(=O)NC1c1ccc(Cl)cc1` (stereo not drawn) belongs 5.53%; to `Fc1ccc(NCc2nc3ccccc3n2CCOc2ccccc2Cl)cc1`, 11.7%; to `CC1CCc2c(sc3nnn(CC(=O)Nc4ccccc4Cl)c(=O)c23)C1` (stereo not drawn), 6.15%.
Next, `CC1(C)Cc2c(sc(/N=C/N3CCCC3)c2C#N)C(C)(C)N1`: active: 32.9%; `CSc1ncc2c(n1)-c1ccccc1N(Cc1ccccc1C)S2(=O)=O`: 2.67%; `COc1ccc(-n2c(=O)c3c(c4cc(OC)ccc4n3C)n(Cc3c(F)cccc3Cl)c2=O)cc1`: 3.58%.
For `Cc1cccc(-n2c3nc(=O)n(C)c(=O)c-3cc3c(C)nn(-c4ccccc4)c32)c1C`, the inhibition was found to be 8.15%.
To `COc1cccc(CCNC(=O)c2cnc3sc(N4CCCC4)nn3c2=O)c1` belongs 9.72%; to `COC1(C(F)(F)F)NC(=O)N(c2ccc(F)cc2)C1=O` (stereo not drawn), -3.14%.
Next, `Cc1ccc(NC(=O)CCNS(=O)(=O)c2cccs2)cc1F`: -2.41%.
To `COc1cccc(-c2nn(C)c3sc(C(=O)N4CCN(c5cccc(C(F)(F)F)c5)CC4)cc23)c1` belongs 5.73%.
With `Cc1cn2c(=O)cc(COC(=O)COc3ccc(F)cc3)nc2s1`, the inhibition amounted to 18%.
To `CCCCNC(=O)c1ccc(-c2nc(CN3CCc4ccccc43)c(C)o2)cc1` belongs -9.39%; to `COc1ccc(OC)c(S(=O)(=O)NCCc2sc(C)nc2C)c1`, 21%; to `Cc1cccc(COc2ccc(-c3cc(C(F)(F)F)n4nc(C)cc4n3)cc2)c1`, 14.3%.
Next, `Cc1ccc(Nc2c3c(nc4ccccc24)CCC3)cc1F`: -11.3%; `CCc1ccc(-c2nc3cc(NC(=O)c4ccc(F)cc4)ccc3o2)cc1`: -11.1%.
To `Cc1ccc(CNC(=O)CCN2C(=O)C(C)Oc3ccc(C)cc32)cc1` (stereo not drawn) belongs 4.55%; to `COc1ccc(NC(=O)Cn2ncc3c4ccccc4n(Cc4ccccc4)c3c2=O)cc1OC`, 4.9%.
With `COc1ccccc1-c1ncnn1-c1sc2c(c1C#N)CCCCC2`, the inhibition is 8.13%.

(Values after PubChem BioAssay AID485344 (National Center for Advancing Translational Sciences (NCATS), 2010).)
